# Screen size: about 130,000 compounds; about 1,900 (1.5%) were called active. Inconclusive results, whose numbers are uncertain, are shown with a selection of clear calls. Calls come from the whole dose curve; as a rule, active = well fitted cell-killing curve with a large enough effect; inconclusive = small, poorly fitted or top-dose-only effect; inactive = no such curve, though single readings can be large or run the other way. Potencies of inconclusive entries are doubtful fits and often do not repeat.
# Test: qHTS Screen for Compounds that Selectively Target Cancer Cells with p53 Mutations: Cytotoxicity of p53ts Cells at the Nonpermissive Temperature; note: nearly all actives have a fitted effect of over 55% in size
# Details: H1299-p53A138V viability at 39C, ATP luminescence, 24 h; activity change, negative = cell killing: at 46.1 µM (top of the series)
# % is set by controls: 0 for no effect and ±100 for the full control effect; potency is the fitted concentration of half-maximal effect; tags give direction and shape of the fitted curve.
SMILES,"activity change, negative = cell killing",Potency
N#CCc1ccccc1[N+](=O)[O-],inactive: 10.4%,–
COc1cccc(Nc2ncc3nc(-c4cn(C)c5ccccc45)c(=O)n(CCC#N)c3n2)c1,–,"inconclusive: 0.316 µM [cytotoxic, full curve, poor fit]"
COc1ccc(C2CC(=O)Nc3c2c(C)nn3-c2nncc(-c3ccc(C)cc3)n2)c(OC)c1OC (configuration not stated),inactive: -13.3%,–
COC(=O)[C@@]1(Cc2ccc(F)cc2)[C@H]2c3cc(C(=O)N4CCCC4)n(Cc4ccccc4)c3C[C@H]2CN1C(=O)c1ccccc1,inactive: 37.6%,–
Cc1csc2nc(-c3cccc(NC(=O)C(C)C)c3)cn12,–,"inconclusive: 10 µM [cytotoxic, partial curve, poor fit]"
COc1ccc(NC(=O)Nc2cc(C)ccc2OC)cc1,–,"inconclusive: 12.6 µM [cytotoxic, single point]"
CCOc1ccc(-c2nc(SCC(=O)Nc3ccc4c(c3)OCO4)c(-c3ccc(F)cc3)[nH]2)cc1,–,"inconclusive: 10 µM [cytotoxic, partial curve]"
CCOC(=O)c1c(C)nc2c3ccccc3ccn12,–,"inconclusive: 10 µM [cytotoxic, partial curve]"
CC1=C/C(=C(/c2ccc(O)c(C)c2)c2ccccc2C(=O)O)C=CC1=O,inactive: -1.68% [at 9.22 µM],–
CCCCCS(=O)(=O)c1oc(-c2cccs2)nc1S(=O)(=O)c1ccc(C)cc1,–,active: 3.16 µM
CCCCN(CCCC)C(=O)c1cc2c(=O)n3cccc(C)c3nc2s1,–,"inconclusive: 31.6 µM [cytotoxic, single point]"
Cc1ccc(C(=O)Nc2ccc(-c3cn4cccnc4n3)cc2)cc1C,–,"inconclusive: 6.31 µM [cytotoxic, single point]"
O=C(NCC1CCN(Cc2cccc(Cl)c2)CC1)Nc1cc(Cl)ccc1Cl,–,active: 12.6 µM
C[N+](C)(C)c1ncnc2c1ncn2[C@@H]1C[C@H](O)[C@@H](CO)O1,inactive: -0.623% [at 9.22 µM],–
Cc1ccc(-c2nc3sc(CCNC(=O)c4ccc(Br)o4)c(C)n3n2)cc1,–,"inconclusive: 10 µM [cytotoxic, partial curve, poor fit]"
Cc1c(C)c2ccc(OCc3ccc(C(=O)O)o3)c(C)c2oc1=O,–,"inconclusive: 12.6 µM [cytotoxic, partial curve]"
O=C(N/N=C/c1cccc([N+](=O)[O-])c1O)c1cccs1,–,"inconclusive: 35.5 µM [cytotoxic, single point]"
COc1ccc(NC(=O)c2ccc3c(c2)OCO3)cc1Cl,–,active: 12.6 µM
O=C(CC(Nc1ccc(Cl)cc1)C(=O)O)c1ccccc1 (configuration not stated),–,"inconclusive: 11.2 µM [cytotoxic, single point]"
COc1ccc(-c2noc(-c3ccccc3C(=O)NCc3ccco3)n2)cc1,–,"inconclusive: 20 µM [cytotoxic, single point]"
Cc1ccccc1C1CC(=O)Nc2ccc3ccccc3c21 (configuration not stated),inactive: -8.87%,–

SMILES,"activity change, negative = cell killing",Potency
CCc1ccccc1NC(=O)c1cnc(N2CCCCC2)c2ccccc12,inactive: -4.92%,–
c1ccc(-c2noc(-c3cccc4ccccc34)n2)cc1,–,"inconclusive: 15.8 µM [cytotoxic, partial curve]"
CCCn1c(=O)c2ccccc2n2c(SCC(=O)c3cc(C)n(CC4CCCO4)c3C)nnc12 (configuration not stated),inactive: -1.1%,–
Nc1ccc(-c2nc3ccc(-c4nc5ccccc5o4)cc3[nH]2)cc1,inactive: -0.377%,–
Cc1ccc(Cl)cc1N1CCN(C(=O)c2ccc(CS(=O)(=O)c3ccccc3C)o2)CC1,–,"inconclusive: 12.6 µM [cytotoxic, partial curve]"
COc1ccc(OC)c(NC(=O)CN(c2ccc(C(C)C)cc2)S(=O)(=O)c2c(C)noc2C)c1,–,"inconclusive: 2.51 µM [cytotoxic, full curve, poor fit]"
COc1ccc(S(=O)(=O)N2Cc3ccccc3CC2C(=O)Nc2nccs2)cc1OC (configuration not stated),–,"inconclusive: 12.6 µM [cytotoxic, partial curve]"
O=C(Nc1ccc2c(c1)CCCN2C(=O)c1cccs1)c1ccccc1Cl,–,"inconclusive: 14.1 µM [cytotoxic, partial curve, poor fit]"
CCOC(=O)c1c(NC(=O)c2ccc(S(=O)(=O)N(CC(C)C)CC(C)C)cc2)sc2c1CCN(C(=O)OCC)C2,–,"inconclusive: 3.98 µM [cytotoxic, partial curve]"
COc1ccc(C(=O)Nc2cccc(N(C)S(C)(=O)=O)c2)cc1OC,–,"inconclusive: 15.8 µM [cytotoxic, single point]"
CCC(Sc1nc2ccccc2c(=O)n1CCc1ccc(OC)c(OC)c1)C(=O)N(CC)CC (configuration not stated),–,"inconclusive: 31.6 µM [cytotoxic, single point]"
O=C(Nc1ccc(OC(F)(F)F)cc1)c1cc2ccccn2n1,–,"inconclusive: 12.6 µM [cytotoxic, partial curve]"
Cc1ccc(-n2ncc3c(NC4CCCCCC4)ncnc32)cc1Cl,–,"inconclusive: 31.6 µM [cytotoxic, single point]"
CCCCN(CCCNC(=O)c1cc(Nc2ccc(OC)c(OC)c2)nc2ccccc12)Cc1ccccc1,–,active: 12.6 µM
COc1ccc(S(=O)(=O)NCCc2csc(-c3ccc(F)cc3)n2)cc1F,–,"inconclusive: 2.51 µM [cytotoxic, partial curve, poor fit]"
COc1cccc(C(=O)Nc2cccc(-c3cn4c(C)csc4n3)c2)c1OC,–,"inconclusive: 35.5 µM [cytotoxic, single point]"
CC1(C)CCC2=C(O1)c1ccccc1C(=O)C2=O,–,active: 5.01 µM
COc1ccc(CNc2oc(-c3ccc(COc4ccccc4C)o3)nc2C#N)cc1,–,"inconclusive: 20 µM [cytotoxic, partial curve]"
CCOC(=O)CNC(=O)c1ccc2c(c1)OCCO2,–,"inconclusive: 10 µM [cytotoxic, partial curve]"
CC(C)c1ccc(OC(=O)c2cc(-c3ccccc3)on2)cc1,inactive: 11.5%,–
CC(=O)N1CCc2c(sc3nc(SCC(C)C)n(-c4ccc(F)c(Cl)c4)c(=O)c23)C1,–,"inconclusive: 31.6 µM [cytotoxic, single point]"
